# Data reported in PubChem BioAssay AID624417 (National Center for Advancing Translational Sciences (NCATS), 2012).
# The whole screen tested about 410,000 compounds, of which about 6,400 (1.6%) were called active. This list was built around the results that the source calls inconclusive (neither active nor inactive); the mix of calls is not that of the screen. Calls come from the whole dose curve; as a rule, active = well fitted inhibition curve with a large enough effect; inconclusive = small, poorly fitted or top-dose-only effect; inactive = no such curve, though single readings can be large or run the other way. No potency is given beside an inconclusive call; the fits are too rough.
# Biological target: Glucagon-like peptide 1 receptor (Homo sapiens) (UniProt P43220)
# Assay: qHTS of GLP-1 Receptor Inverse Agonists (Inhibition Mode); note: nearly all actives have a fitted effect of over 55% in size
# Details: HEK293 GLP-1R CRE-luciferase, luminescence, 24 h; Potency: GLP-1R form is constitutively active unless noted; series mostly up to 38.3 µM
# Method in brief: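 Stable HEK293 clone (constitutively active GLP-1R + cAMP-response luciferase); 200 cells/uL plated, 12 h pre-culture, compound 24 hr, 37 deg C/5% CO2; detection reagent 12 min RT; luminescence.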
# Potency is the fitted concentration of half-maximal effect; tags give direction and shape of the fitted curve.
# Chain of UniProt P43220 (P43220 whole entry, looked up): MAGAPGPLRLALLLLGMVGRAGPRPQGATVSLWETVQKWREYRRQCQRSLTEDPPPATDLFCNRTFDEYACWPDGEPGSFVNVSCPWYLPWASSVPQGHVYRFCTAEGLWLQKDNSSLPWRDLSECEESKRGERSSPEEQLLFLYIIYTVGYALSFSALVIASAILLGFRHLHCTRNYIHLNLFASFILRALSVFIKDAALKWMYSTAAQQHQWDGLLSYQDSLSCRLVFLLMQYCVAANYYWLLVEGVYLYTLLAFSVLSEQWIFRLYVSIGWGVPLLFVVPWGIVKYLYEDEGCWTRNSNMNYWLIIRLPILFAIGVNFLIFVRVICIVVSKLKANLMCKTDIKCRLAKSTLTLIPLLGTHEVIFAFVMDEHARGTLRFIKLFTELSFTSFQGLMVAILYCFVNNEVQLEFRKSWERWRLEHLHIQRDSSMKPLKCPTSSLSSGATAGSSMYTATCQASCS
row,Compound,Potency
1,CC(=O)Nc1ccccc1C(=O)OCc1ccc(F)cc1,"inconclusive [inhibitor, single point]"
2,COc1ccc(-n2nnnc2C(CCc2ccccc2)N2CCC(n3c(=O)[nH]c4ccccc43)CC2)cc1 (stereo unspecified),"inconclusive [inhibitor, partial curve]"
3,CC(C)(C)C(=O)c1cn(Cc2ccccc2)c2ccccc12,"inconclusive [inhibitor, partial curve, poor fit]"
4,O=c1[nH]c(=O)n(Cc2ccc(F)cc2)c(O)c1/C=N/Nc1ccccc1,active: 4.47 µM [setting not given]
5,CC(C)(C)N(NC(=O)c1ccccc1)C(=O)c1ccccc1,inactive
6,CSc1ncc(CN2CCCC(C(=O)c3cccc(Cl)c3)C2)cn1 (stereo unspecified),"inconclusive [inhibitor, partial curve, poor fit]"
7,CN1CCC(N(C)c2ncnc3ccc(Br)cc23)CC1,"inconclusive [inhibitor, single point]"
8,CCN(CC)C(=O)c1ccc(NC(=S)NC(=O)CCc2ccccc2)cc1,"inconclusive [inhibitor, single point]"
9,CCCCc1ncc(CN2CCCC(C(=O)c3ccc(SC)cc3)C2)[nH]1 (stereo unspecified),"inconclusive [inhibitor, partial curve, poor fit]"
10,CC(C)Oc1cccc(C(=O)C2CCCN(Cc3ccon3)C2)c1 (stereo unspecified),"inconclusive [inhibitor, single point]"
11,COc1cccc(CN2CCc3nc(N4CCN(c5ncccn5)CC4)ncc3C2)c1,"inconclusive [inhibitor, single point]"
12,CCCCCCCCCCCCCCCC[N+](C)(C)C,"inconclusive [inhibitor, single point]"
13,Cc1c(C=O)c2ccccc2n1Cc1ccccc1,"inconclusive [inhibitor, partial curve, poor fit]"
14,CN1C[C@H](CNC(=O)OCc2ccccc2)C[C@@H]2c3cccc4c3c(cn4C)C[C@H]21,"inconclusive [inhibitor, partial curve, poor fit]"
15,C[C@@H]1CN([C@H](C)CO)C(=O)c2c(c3ccccc3n2C)-c2ccccc2CO[C@H]1CN(C)Cc1ccc(-c2ccccc2)cc1,"inconclusive [inhibitor, partial curve, poor fit]"
16,Cc1c(C(=O)N2CCC3(CC2)OCCO3)sc2ncnc(N3CCc4ccccc4C3)c12,"inconclusive [inhibitor, single point]"
17,CCCCn1c(N)c(C(=O)NCCN2CCOCC2)c2nc3ccccc3nc21,"inconclusive [inhibitor, partial curve, poor fit]"
18,CCCc1c(C)nc(-c2ccc(C)cc2)nc1OC(=O)N(C)C,"inconclusive [inhibitor, single point]"
19,COc1ccc(CN2CCN(C(=O)Cc3ccccc3)CC2)cc1Br,inactive
20,O=c1[nH]c2ccccc2n1C1CCN(C(c2cc3ccccc3o2)c2nnnn2Cc2ccccc2)CC1 (stereo unspecified),"inconclusive [inhibitor, partial curve]"
21,CNC(=O)Oc1ccc(-c2cn3cc(Cl)ccc3n2)cc1,inactive

row,Compound,Potency
1,CC1CCN(C(CC(=O)c2ccccc2)C(=O)c2ccccc2)CC1 (stereo unspecified),"inconclusive [inhibitor, single point]"
2,Cn1c(O)c(C(=Nc2ccccc2)SCc2ccc(Cl)cc2)c(=O)n(C)c1=O,"inconclusive [inhibitor, single point]"
3,CCc1nc2ccccc2c(=O)n1-c1ccc2ccccc2c1,"inconclusive [inhibitor, partial curve, poor fit]"
4,Nc1ccc2c(c1)Cc1cc([N+](=O)[O-])ccc1-2,inactive
5,COC(=O)C1=C(c2cccc(OCc3ccccc3)c2)C[C@@H]2CC[C@H]1N2C(=O)NCc1ccc(N(C)C)cc1,"inconclusive [inhibitor, single point]"
6,CCOC(=O)[C@]12Cc3cc(OC)ccc3[C@H]1N(C(C)C)C(=O)c1cc(OC)ccc12,"inconclusive [inhibitor, single point]"
7,CCCCCn1c(NC(=O)c2ccco2)c(C(=O)OCC)c2nc3ccccc3nc21,"inconclusive [inhibitor, single point]"
8,CN(C)c1nc(OCc2ccccc2)c2ncc(=O)[nH]c2n1,inactive
9,Cc1ccc(Cn2cc(C=O)c3ccccc32)cc1,"inconclusive [inhibitor, partial curve, poor fit]"
10,Cn1c(=O)oc(=O)c2ccccc21,inactive
11,O=C(c1ccc(CNS(=O)(=O)c2ccc(Br)cc2)cc1)N1CCC2(CC1)OCCO2,"inconclusive [inhibitor, single point]"
12,O=C1NC(=O)N(c2ccc3c(c2)OCO3)C(=O)/C1=C/c1ccsc1,inactive
13,O=[N+]([O-])c1cccc(CN2CCN(Cc3ccc(Cl)cc3)CC2)c1,"inconclusive [inhibitor, partial curve, poor fit]"
14,COc1ccccc1CCNC1CCC(C)CC1 (stereo unspecified),"inconclusive [inhibitor, partial curve, poor fit]"
15,O=c1c2ccccc2nc(Cc2ccccc2)n1-c1ccccc1,"inconclusive [inhibitor, single point]"
16,O=C(c1ccco1)c1cn(Cc2ccccc2)c2ccccc12,"inconclusive [inhibitor, partial curve, poor fit]"
17,CN(Cc1ccc(OC(F)F)cc1)C(=O)c1ccccc1Sc1ccccc1C#N,"inconclusive [inhibitor, partial curve, poor fit]"
18,CC(=O)O[C@@]12CO[C@@H]1C[C@H](OC1OCC(O)C(O)C1O)[C@@]1(C)C(=O)[C@H](O)C3=C(C)[C@@H](OC(=O)[C@H](O)[C@@H](NC(=O)c4ccccc4)c4ccccc4)C[C@@](O)([C@@H](OC(=O)c4ccccc4)C12)C3(C)C (stereo partly specified),"inconclusive [inhibitor, partial curve, poor fit]"
19,CC1=C(C(=O)Nc2ccccc2)S(=O)(=O)CCO1,active: 10 µM [setting not given]
20,O=C(c1cc(F)ccc1F)C1CCCN(Cc2cccc(Cl)c2)C1 (stereo unspecified),active: 10 µM
21,COc1ccc(C(=O)Nc2ccc(S(=O)(=O)N(Cc3ccccc3)c3ccccc3)cc2)cc1,active: 5.01 µM

row,Compound,Potency
1,COc1ccc(-n2c(-c3ccccc3Br)nc3ccccc3c2=O)cc1,"inconclusive [inhibitor, partial curve, poor fit]"
2,COC(=O)C1=C(c2cccc(C#N)c2)C[C@@H]2CC[C@H]1N2C(=O)NCCc1ccccc1,inactive
3,CC12CN3CC(c4ccccc4)(CN(C1)C31CCCCC1)C2=O,inactive
4,COC(=O)C1=C(c2ccc(Cl)c(C(F)(F)F)c2)C[C@@H]2CC[C@H]1N2C(=O)N1CCOCC1,"inconclusive [inhibitor, single point]"
5,Cc1ccc(/C(CSc2nccn2-c2ncc(C(F)(F)F)cc2Cl)=N\O)cc1,active: 3.55 µM
6,COc1ccccc1CN1CCN(C(=O)COc2cccc(C)c2)CC1,"inconclusive [inhibitor, full curve]"
7,COC(=O)C1=C(c2ccc(Cl)c(C(F)(F)F)c2)C[C@@H]2CC[C@H]1N2C(=O)NCc1ccco1,"inconclusive [inhibitor, partial curve, poor fit]"
8,CCOC(=O)[C@]12Cc3c(cc(OC)c(OC)c3OC)[C@H]1N(C1CCCCC1)C(=O)c1ccccc12,"inconclusive [inhibitor, full curve]"
9,CCCN(CC#CCOc1ccc(OC)cc1)CCC,"inconclusive [inhibitor, partial curve, poor fit]"
10,C/C(=N\OC(=O)NC(C)C)c1sc(-c2ccc(Cl)cc2)nc1C,"inconclusive [inhibitor, single point]"
11,Cc1cc(C)cc(NC(=S)NC2CC3CCC(C2)N3Cc2ccco2)c1 (stereo unspecified),"inconclusive [inhibitor, partial curve, poor fit]"
12,COc1cc(C2Nc3c(C)cc(C)cc3-c3cc(C)nn32)cc(OC)c1O (stereo unspecified),"inconclusive [inhibitor, full curve, poor fit]"
13,Cc1ccccc1-n1nc(C)c2c1NC(=O)CSC2c1ccccc1C(F)(F)F (stereo unspecified),"inconclusive [inhibitor, partial curve, poor fit]"
14,O=C(c1cc(F)ccc1F)C1CCCN(CCCc2ccccc2)C1 (stereo unspecified),"inconclusive [inhibitor, partial curve, poor fit]"
15,CCOc1ccc(NC(=O)C2C3c4ccccc4C(c4ccccc43)C2C(=O)O)cc1 (stereo unspecified),"inconclusive [inhibitor, single point]"
16,O=C(O)c1ccc2c(c1)C1C(Cl)C(Sc3ccccc3[N+](=O)[O-])CC1C(c1cccc([N+](=O)[O-])c1)N2 (stereo unspecified),inactive
17,N#Cc1cn(C2OC(CO)C(O)C2O)c2ncnc(N)c12 (stereo unspecified),"inconclusive [inhibitor, single point]"
18,CCOc1ccccc1OCC(=O)Nc1ccc(Cl)cc1C(=O)c1ccccc1,"inconclusive [inhibitor, partial curve, poor fit]"
19,CCc1ccc(NC(=O)Cn2c(=O)oc3cc(S(=O)(=O)NCc4ccccc4)ccc32)cc1,"inconclusive [inhibitor, partial curve, poor fit]"
